# Assay results: the supplement of paper PMC8728848
# This is one part of the list.
# B1: PVL (Psathyrella velutina), Q309D1_9AGAR (protein)
# chain: MSVVVISQALPVPTRIPGVADLVGFGNGGVYIIRNSLLIQVVKVINNFGYDAGGWRVEKHVRLLADTTGDNQPDVVGFGENGVWISTNNGNNTFVDPPKMVLANFAYAAGGWRVEKHIRFMADLRKTGRADIVGFGDGGIYISRNNGGGQFAPAQLALNNFGYAQGWRLDRHLRFLADVTGDGLLDVVGFGENQVYIARNSGNGTFQPAQAVVNNFCIGAGGWTISAHPRVVADLTGDRKADILGFGVAGVYTSLNNGNGTFGAVNLVLKDFGVNSGWRVEKHVRCVSSLTNKKVGDIIGFGDAGVYVALNNGNGTFGPVKRVIDNFGYNQGWRVDKHPRFVVDLTGDGCADIVGFGENSVWACMNKGDGTFGPIMKLIDDMTVSKGWTLQKTVRYAANLYL
# Tests used:
# Assay in all cases: glycan array binding signal (z-score within array); higher = stronger binding
# Details in all cases: glycan notation: IUPAC condensed, linker removed
# GalNAc3S(b1-4)GlcNAc3S = target: GalNAc3S(b1-4)GlcNAc3S
# Outline: (§1)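 Arrays were curated from the Consortium for Functional Glycomics database, 3228 in total, and kept only where the protein sequence was available. Binding is expressed as a within-array Z-score. This score was averaged across arrays of the same protein sequence at different concentrations or buffers and across linkers, and negative values can be read as non-binding.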
# [1] = target: GalNAc3S(b1-4)[Fuc(a1-3)]GlcNAc
# Outline: as §1
# GalNAc4S6S(b1-4)GlcNAc = target: GalNAc4S6S(b1-4)GlcNAc
# Outline: as §1
# GalNAc6S(b1-4)GlcNAc = target: GalNAc6S(b1-4)GlcNAc
# Outline: as §1
# Glc(a1-4)Glc = target: Glc(a1-4)Glc
# Outline: as §1
# [2] = target: Glc(a1-4)Glc(a1-4)Glc(a1-4)Glc
# Outline: as §1
# Glc(a1-6)Glc(a1-6)Glc = target: Glc(a1-6)Glc(a1-6)Glc
# Outline: as §1
# [3] = target: Glc(a1-6)Glc(a1-6)Glc(a1-6)Glc
# Outline: as §1
# Glc(b1-4)Glc = target: Glc(b1-4)Glc
# Outline: as §1
# Glc(b1-6)Glc = target: Glc(b1-6)Glc
# Outline: as §1
# GlcA(b1-3)Gal = target: GlcA(b1-3)Gal
# Outline: as §1
# GlcA(b1-3)GlcNAc = target: GlcA(b1-3)GlcNAc
# Outline: as §1
# GlcA(b1-6)Gal = target: GlcA(b1-6)Gal
# Outline: as §1
# [4] = target: GlcA3S(b1-3)Gal(b1-4)GlcNAc(b1-2)Man
# Outline: as §1
# [5] = target: GlcA3S(b1-3)Gal(b1-4)GlcNAc(b1-3)Gal(b1-4)Glc
# Outline: as §1
# [6] = target: GlcNAc(a1-3)Gal(b1-4)GlcNAc
# Outline: as §1
# [7] = target: GlcNAc(a1-4)Gal(b1-3)GlcNAc
# Outline: as §1
# [8] = target: GlcNAc(a1-4)Gal(b1-4)GalNAc
# Outline: as §1
# [9] = target: GlcNAc(a1-4)Gal(b1-4)GlcNAc
# Outline: as §1
# [10] = target: GlcNAc(a1-4)Gal(b1-4)GlcNAc(b1-3)Gal(b1-4)Glc
# Outline: as §1
# [11] = target: GlcNAc(a1-4)Gal(b1-4)GlcNAc(b1-3)Gal(b1-4)GlcNAc
# Outline: as §1
# [12] = target: GlcNAc(a1-4)Gal(b1-4)GlcNAc(b1-3)Gal(b1-4)GlcNAc(b1-3)Gal(b1-4)GlcNAc
# Outline: as §1
# [13] = target: GlcNAc(a1-4)Gal(b1-4)GlcNAc(b1-3)Gal(b1-4)[Fuc(a1-3)]GlcNAc(b1-3)Gal(b1-4)[Fuc(a1-3)]GlcNAc
# Outline: as §1
# [14] = target: GlcNAc(a1-6)Gal(b1-4)GlcNAc
# Outline: as §1
# [15] = target: GlcNAc(b1-2)Gal(b1-3)GalNAc
# Outline: as §1
# [16] = target: GlcNAc(b1-2)Man(a1-3)[GlcNAc(b1-2)Man(a1-6)]Man(b1-4)GlcNAc(b1-4)GlcNAc
# Outline: as §1
# [17] = target: GlcNAc(b1-2)Man(a1-3)[GlcNAc(b1-2)Man(a1-6)]Man(b1-4)GlcNAc(b1-4)[Fuc(a1-6)]GlcNAc
# Outline: as §1
# [18] = target: GlcNAc(b1-2)Man(a1-3)[GlcNAc(b1-4)][GlcNAc(b1-2)Man(a1-6)]Man(b1-4)GlcNAc(b1-4)GlcNAc
# Outline: as §1
# [19] = target: GlcNAc(b1-2)Man(a1-3)[GlcNAc(b1-4)][GlcNAc(b1-2)Man(a1-6)]Man(b1-4)GlcNAc(b1-4)[Fuc(a1-6)]GlcNAc
# Outline: as §1
# [20] = target: GlcNAc(b1-2)[GlcNAc(b1-4)]Man(a1-3)[GlcNAc(b1-2)Man(a1-6)]Man(b1-4)GlcNAc(b1-4)GlcNAc
# Outline: as §1
# [21] = target: GlcNAc(b1-2)[GlcNAc(b1-4)]Man(a1-3)[GlcNAc(b1-4)][GlcNAc(b1-2)Man(a1-6)]Man(b1-4)GlcNAc(b1-4)GlcNAc
# Outline: as §1
# [22] = target: GlcNAc(b1-2)[GlcNAc(b1-4)]Man(a1-3)[GlcNAc(b1-4)][GlcNAc(b1-2)[GlcNAc(b1-6)]Man(a1-6)]Man(b1-4)GlcNAc(b1-4)GlcNAc
# Outline: as §1
# [23] = target: GlcNAc(b1-2)[GlcNAc(b1-4)]Man(a1-3)[GlcNAc(b1-4)][GlcNAc(b1-2)[GlcNAc(b1-6)]Man(a1-6)]Man(b1-4)GlcNAc(b1-4)[Fuc(a1-6)]GlcNAc
# Outline: as §1
# [24] = target: GlcNAc(b1-2)[GlcNAc(b1-6)]Man(a1-6)[GlcNAc(b1-2)Man(a1-3)]Man(b1-4)GlcNAc(b1-4)GlcNAc
# Outline: as §1
# [25] = target: GlcNAc(b1-2)[GlcNAc(b1-6)]Man(a1-6)[GlcNAc(b1-2)Man(a1-3)]Man(b1-4)GlcNAc(b1-4)[Fuc(a1-6)]GlcNAc
# Outline: as §1
# [26] = target: GlcNAc(b1-2)[GlcNAc(b1-6)]Man(a1-6)[GlcNAc(b1-4)][GlcNAc(b1-2)Man(a1-3)]Man(b1-4)GlcNAc(b1-4)GlcNAc
# Outline: as §1
# GlcNAc(b1-3)Fuc = target: GlcNAc(b1-3)Fuc
# Outline: as §1
# GlcNAc(b1-3)Gal = target: GlcNAc(b1-3)Gal
# Outline: as §1
binder,measurement,setting,value
B1,glycan array binding signal (z-score),GalNAc3S(b1-4)GlcNAc3S,-0.369
same,glycan array binding signal (z-score),[1],-0.356
same,glycan array binding signal (z-score),GalNAc4S6S(b1-4)GlcNAc,-0.362
same,glycan array binding signal (z-score),GalNAc6S(b1-4)GlcNAc,-0.333
same,glycan array binding signal (z-score),Glc(a1-4)Glc,-0.366
same,glycan array binding signal (z-score),[2],-0.34
same,glycan array binding signal (z-score),Glc(a1-6)Glc(a1-6)Glc,-0.373
same,glycan array binding signal (z-score),[3],-0.341
same,glycan array binding signal (z-score),Glc(b1-4)Glc,-0.365
same,glycan array binding signal (z-score),Glc(b1-6)Glc,-0.37
same,glycan array binding signal (z-score),GlcA(b1-3)Gal,-0.369
same,glycan array binding signal (z-score),GlcA(b1-3)GlcNAc,-0.352
same,glycan array binding signal (z-score),GlcA(b1-6)Gal,-0.358
same,glycan array binding signal (z-score),[4],-0.368
same,glycan array binding signal (z-score),[5],-0.332
same,glycan array binding signal (z-score),[6],3.02
same,glycan array binding signal (z-score),[7],2.8
same,glycan array binding signal (z-score),[8],0.695
same,glycan array binding signal (z-score),[9],2.67
same,glycan array binding signal (z-score),[10],3.58
same,glycan array binding signal (z-score),[11],2.81
same,glycan array binding signal (z-score),[12],4.19
same,glycan array binding signal (z-score),[13],1.73
same,glycan array binding signal (z-score),[14],1.91
same,glycan array binding signal (z-score),[15],0.08
same,glycan array binding signal (z-score),[16],1.69
same,glycan array binding signal (z-score),[17],0.519
same,glycan array binding signal (z-score),[18],0.188
same,glycan array binding signal (z-score),[19],0.461
same,glycan array binding signal (z-score),[20],1.24
same,glycan array binding signal (z-score),[21],0.537
same,glycan array binding signal (z-score),[22],0.078
same,glycan array binding signal (z-score),[23],0
same,glycan array binding signal (z-score),[24],1.06
same,glycan array binding signal (z-score),[25],1.56
same,glycan array binding signal (z-score),[26],0.06
same,glycan array binding signal (z-score),GlcNAc(b1-3)Fuc,0.23
same,glycan array binding signal (z-score),GlcNAc(b1-3)Gal,2.44
